Assay results taken from the supplement of paper PMC11417369.
This is one part of the list.

What follows are sequences tested on PfHDP1 homeodomain (GST-tagged) (assay: gcPBM binding intensity (ln(normalized median fluorescence intensity)); higher = stronger DNA binding).
Outline: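 The binding buffer was 1× PBS containing 1% milk, 0.2 mg/ml BSA, 0.5% salmon testes DNA and 0.03% Triton X-100. In it, GST-tagged P. falciparum DNA-binding domains expressed in E. coli were applied for 1 h to an Agilent 4 × 180k array of primer-extended double-stranded 36-bp intergenic genomic probes plus negative controls. Binding intensity, read with Alexa488 anti-GST antibody and a 488 nm scan, is the highest Masliner-normalised natural-log median intensity across replicate spots of either probe orientation.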

In order of falling “gcPBM binding intensity (ln)” value:
1. ATTGTATGCACGTCTGCACACTTTTTTTTTTTTTTT [CACACA_site2082]  11
2. TTTGTAGTTTGCACATGTACACATTTCAAAATAAAG [XGTACX_site7568]  10.7
3. TTTATGAAACAGTGCACACATAAAAATATATACATA [CACACA_site2992]  10.1
4. AGGTCTGTTTTATATTGTACATAAAAAGTGCACATG [XGTACX_site4529]  10.1
5. TAATTATAAATTATAGTGCATAAAATTGTAGCATAA  9.63
6. TAATTAAAATCATATACACACCCATATATATATATA [CACACA_site8524]  9.35
7. ATATATATATATATATGTACATATCACTTTAAATAT [XGTACX_site3859]  9.35
8. TATATATAATTATAAGAACACACATATATATATATA [CACACA_site8786]  9.14
9. CATATTTTTTCTTAAACACACACATATATATATATA [CACACA_site8920]  9.12
10. ATATATATATATATTTGTACGTATTATGTATTTTTT [XGTACX_site3530]  9.09
11. TATTAAATTATATAGACACACATTATATATATATAT [CACACA_site4345]  8.86
12. TACAAATATAGATGCACACACATATAGGTATATGTG [CACACA_site7439]  8.78
13. TATATATATATGTACACACACACATATAAATAAATA [CACACA_site443]  8.71
14. ATTTTTTTTTAATGCAAAAGGTGATGATCGGTCATA [CACACA_negctrl_site959]  7.31
15. GTAAGATTTCTTGTTGCATGCGGTAAAAAGTAAAAT [TGCATGCA_site469]  7.18
16. AATAGAATAATCCTTACACACACACGCGCACGAATA [CACACA_site6365]  7.12
17. TAAATATATATATATTGTACAAAACAAATGTGAATT [XGTACX_site696]  7.1
18. AACTTTATACTTTTTTGTACTTAACCCTTACATTTT [XGTACX_site5798]  7.05
19. TACACCCACCAACACACACACACACCCAAAAAAAAA [CACACA_site498]  7.04
20. AGAGAGAAAGTTATAACATGCAACAATTTTTAGAAC [TGCATGCA_site96]  7
21. TTTTTTTTTTTGTGGGTGCGTTTATAAAAACAGGAA  6.95
22. AATATAGATACATATACACACACACCCATACATATA [CACACA_site9137]  6.91
23. CACATACATATATACACACACAAAATAATAAAATAA [CACACA_site2308]  6.89
24. AACATACATAAACACACACACACACCCACACCCACA [CACACA_site8058]  6.88
25. TTCTATAAGTATAAATGTACAAAAAAAACATCATTC [XGTACX_site5450]  6.81
26. ATATAGTTCGTTTATACACACATGATAAGATATTTA [CACACA_site1947]  6.8
27. TAAAAGGGGATATATGAACACACAAAAAAAAAATAT [CACACA_site8940]  6.79
28. TGTGGGAATAACCACACACACACACCCATATATATA [CACACA_site5876]  6.79
29. ATATATTTCTGTCAAGCACACATAATATTAATATAT [CACACA_site7993]  6.74
30. AAGAAAAACATTACGTGTACCAAAAGGCCTGTCAAC [XGTACX_site267]  6.74
31. ATGTAAATTATTATTCTATTGTTATATACACAATAT [XGTACX_negctrl_site332]  6.74
32. ATAATTCTAAATAAATGTACACACAAAAATAAATGT [XGTACX_site3547]  6.73
33. AAAATGGGTTAGCACATACACACCAATATATTATAT [CACACA_site3082]  6.69
34. CATATTATATTTTCATGTACACATAACATATTTATA [XGTACX_site4787]  6.68
35. ATAATTATTAAGAGAACATGCAAAATATATATGTTT [TGCATGCA_site503]  6.68
36. CATAATACCTATAACACACACAATTATACATAAACT [CACACA_site7506]  6.68
37. TATAGATGTATGTACATACACACATATATAAATAAA [CACACA_site1789]  6.68
38. TTTTCTTGATTTTGTAGTACATTTTTACGATATTTT [XGTACX_site63]  6.67
39. TTAAAATATGATATATGTACATAATTACTAAAAACA [XGTACX_site276]  6.65
40. AAATACCTGATATATACACACTATGTTTTTCTTTTT [CACACA_site6680]  6.65
41. AATGATACTTAGGGGCATGTCTCTGGGGGCATAACC [CACACA_negctrl_site591]  6.63
42. ATATTAAGTTTTATTACACACTCTCAATTTTTATTT [CACACA_site4206]  6.63
43. TTTTCTTAAAAAATCAAACACACATATATATATACA [CACACA_site2297]  6.62
44. TATTATGCCTTTAATATACACACTAATATTTTTTTG [CACACA_site2045]  6.61
45. ATTTTATTTTTTTGTGATAATTGATTTATATATTGT [TGCATGCA_negctrl_site563]  6.6
46. TTTATATATTTATTCACACATATAATATTCCGTCGT [CACACA_site6120]  6.58
47. TAACGCATGAATATAATATATATATATATAAAAATA [GTGCAC_negctrl_site218]  6.58
48. AGAGAGAAAGGTATAACATGCGATAAATTTTAGAAG [TGCATGCA_site37]  6.58
49. TGTTATTCGACATATACACACAAATAACAATTTAAA [CACACA_site5076]  6.56
50. ATTATTTCTTTGTGATGTACAAATAAACATGTTGGT [XGTACX_site5636]  6.54
51. CTCATAATTTCTGAACGTACGTATTTCTCATTTTTA [XGTACX_site7296]  6.54
52. TAGATAAATGGGTATACACACATATACATAAATATA [CACACA_site375]  6.51
53. GTTAATTGAAGATTCACACATAAATATATATATAAT [CACACA_site5482]  6.48
54. AATACAATAAAATAGTGTACATATATATTATGTATA [XGTACX_site8258]  6.47
55. ATATATATTTCTTAAAGTACATAATAATAAAAATAT [XGTACX_site8981]  6.47
56. ATGATAGTATGTATGAGTACGAAAAAAAAAAATTAA [XGTACX_site32]  6.45
57. GGGTTCAATTTAAAGAGTACAAAAAATGTAGGTCAT [XGTACX_site5290]  6.43
58. GTAACAAATAAAATAACACACATGTCGAAATGTATG [CACACA_site2971]  6.41
59. TGTTAATTTATATTATGTACTTATAATTATCGTTTG [XGTACX_site1032]  6.4
60. TCCTAATATTTGTCAAATTTCAAAATAAATAAAATG [XGTACX_negctrl_site540]  6.36
61. TTTATATTATACTATACATGCATATAATAAAGGTCA [TGCATGCA_site934]  6.36
62. CAATTAAATATATGAACACACATGTGAACTTTCTAT [CACACA_site3977]  6.36
63. TGTATTAATATGGTAATACACACTAATATACTTTTG [CACACA_site1610]  6.36
64. ATTTATCCAAAAAAATGTACAGGATAATTTGTTCAT [XGTACX_site7737]  6.34
65. AAAGCACCCAGGCACACACACAAAGGAAAAGAAAAA [CACACA_site232]  6.32
66. AATATATACATATATTGTACATATAGTTTCTTGCAT [XGTACX_site7871]  6.29
67. TTAAAAATATTATGTACACACATTTTAGATATTTGT [CACACA_site1846]  6.23
68. TATATATTACATTGTTGTACATATATATTATATATA [XGTACX_site60]  6.23
69. AAAAAATTGAAGGAGTGTACATTTATACTTTATTTT [XGTACX_site8623]  6.22
70. GTTATAAACAAAATAAATATATGAATATATAATAAT [XGTACX_negctrl_site96]  6.21
71. TAAATGTTTCTCAAAAGTACACATGTGATATTTCTT [XGTACX_site2065]  6.19
72. TTTTAATAAACAAAACGTACACATTATTATTATATA [XGTACX_site335]  6.19
73. TGTAGAATTTCCTGAACATGCAAATAATTTTCCTTA [TGCATGCA_site881]  6.19
74. TTTTTTACATCCATAAAACTTTTTCTCTTTTAAAAT [CACACA_negctrl_site1745]  6.17
75. GAATAAATTAAAAACGCATGTATCATTACTACATAA [TGCATGCA_site111]  6.16
76. TTTCCATATTGTGGATGTACGTTTTGAGGTTTTTAC [XGTACX_site3362]  6.15
77. CATATTCCAAGAATGTGTACATAATTTTTTTTTTTT [XGTACX_site4310]  6.15
78. AAAATATGATATGAAAAATTTGTTATATATACATAA [CACACA_negctrl_site1529]  6.15
79. AAAAAGAAATATTTATGTACATAATAATAATATTTT [XGTACX_site4693]  6.14
80. TATAAAAATTAATATTGTACGTTTTATGAAAATAAA [XGTACX_site8237]  6.13
81. ATAATTATATAAATATATATAATATATATATGAAAA [XGTACX_negctrl_site357]  6.13
82. TTAAAAAAAAAAAAAAGTACATAAGTATATATAATA [XGTACX_site4295]  6.08
83. TTTTTTTCTTGTTTTAAATAATATACTGGAAAAAAA [CACACA_negctrl_site585]  6.01
84. TTTTTAAAAATAACAGAAAAGAATTACAGATTTTTT [XGTACX_negctrl_site472]  6.01
85. AACATAATAAAAATGGATATAATTCAAAGTTTGTAA [TGCATGCA_negctrl_site529]  5.96
86. GACATTTGTGAGCTTGAGCCGTCAAACCACTAAATA [CACACA_negctrl_site552]  5.96
87. AAGTTTTCTTAAAGCTGTACTTTTTAAAAATAAAAT [XGTACX_site7716]  5.87
88. AAATCACTTTTTAAGTGTACTTGGTCTTTCTCATTT [XGTACX_site7221]  5.84
